Measurements published in a collection of fitness landscapes (doi:10.1016/j.celrep.2020.107928).
The full ranking holds about 81,000 sequences; the median of “one-hybrid fitness for binding NBS DNA” is about -0.1, and the highest 2% start at about 0.36. This is one part of the list.

B1: Caulobacter ParB omega fusion; a variant is named by its letters at X, in order, B8GW30 (parent)
chain: MESVVVGEPGMSEGRRGLGRGLSALLGEVDAAPAQAPGEQLGGSREAPIEILQRNPDQPRRTFREEDLEDLSNSIREKGVLQPILVRPSPDTAGEYQIVAGERAWRAAQRAGLKTVPIMVRELDDLAVLEIGIIENVQRADLNVLEEALSYKVLMEKFERTQENIAQTIGKSXSHVANXMRLLXLPDEVQSYLVSGELTAXHARAIAAAADPVALAKQIIEGGLSVRETEALARKAPNLSAGKSKGGRPPRVKDTDTQALESDLSSVLGLDVSIDHRGSTGTLTITYATLEQLDDLCNRLTRGI

Variants of: B1
Assay: one-hybrid fitness for binding NBS DNA (the Noc-binding site; scaled: cognate 1, non-cognate 0); higher = stronger binding
Conditions: with NBS DNA site
Method in brief: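 Bacterial one-hybrid selection in E. coli USO rpoZ- hisB- pyrF- with a HIS3 reporter carrying the site 19 bp from the promoter, screening Caulobacter ParB libraries with four specificity codons randomised (NNS). Cells grew 48 hours at 37°C on M9-minus-histidine plus 0.1 mM IPTG and 5 mM 3-AT. Plasmids before and after selection were Illumina-sequenced, three replicate libraries pooled, and variants under 10 reads dropped. Fitness is the log change in variant-to-wild-type read ratio, rescaled to cognate 1, non-cognate 0.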

WICV and QTIN cannot be ordered by “one-hybrid fitness for binding NBS DNA” value: ≤ 0.2 for the first, ≤ 0.2 for the second.

EMVW and CTML cannot be ordered by “one-hybrid fitness for binding NBS DNA” value: ≤ 0.2 for the first, ≤ 0.2 for the second.

SLKT and LQNN cannot be ordered by “one-hybrid fitness for binding NBS DNA” value: ≤ 0.2 for the first, ≤ 0.2 for the second.

LAHV and PCLV cannot be ordered by “one-hybrid fitness for binding NBS DNA” value: ≤ 0.2 for the first, ≤ 0.2 for the second.

HLTV and GREC cannot be ordered by “one-hybrid fitness for binding NBS DNA” value: ≤ 0.2 for the first, ≤ 0.2 for the second.

LQPF and MTYS cannot be ordered by “one-hybrid fitness for binding NBS DNA” value: ≤ 0.2 for the first, ≤ 0.2 for the second.

TISQ and PEHI cannot be ordered by “one-hybrid fitness for binding NBS DNA” value: ≤ 0.2 for the first, ≤ 0.2 for the second.

WRAH and ETPG cannot be ordered by “one-hybrid fitness for binding NBS DNA” value: ≤ 0.2 for the first, ≤ 0.2 for the second.

HASN and PYKS cannot be ordered by “one-hybrid fitness for binding NBS DNA” value: ≤ 0.2 for the first, ≤ 0.2 for the second.

ASFN and RAPL cannot be ordered by “one-hybrid fitness for binding NBS DNA” value: ≤ 0.2 for the first, ≤ 0.2 for the second.

LPSK and MTDY cannot be ordered by “one-hybrid fitness for binding NBS DNA” value: ≤ 0.2 for the first, ≤ 0.2 for the second.

PIPF and DPTF cannot be ordered by “one-hybrid fitness for binding NBS DNA” value: ≤ 0.2 for the first, ≤ 0.2 for the second.

AQDE and SCIC cannot be ordered by “one-hybrid fitness for binding NBS DNA” value: ≤ 0.2 for the first, ≤ 0.2 for the second.

AYPA and AEPL cannot be ordered by “one-hybrid fitness for binding NBS DNA” value: ≤ 0.2 for the first, ≤ 0.2 for the second.

SLEI and KNDT cannot be ordered by “one-hybrid fitness for binding NBS DNA” value: ≤ 0.2 for the first, ≤ 0.2 for the second.

DPAA and GTTA cannot be ordered by “one-hybrid fitness for binding NBS DNA” value: ≤ 0.2 for the first, ≤ 0.2 for the second.

FLDN and FSNG cannot be ordered by “one-hybrid fitness for binding NBS DNA” value: ≤ 0.2 for the first, ≤ 0.2 for the second.

KKCC and SLAF cannot be ordered by “one-hybrid fitness for binding NBS DNA” value: ≤ 0.2 for the first, ≤ 0.2 for the second.

RKCD and NIPP cannot be ordered by “one-hybrid fitness for binding NBS DNA” value: ≤ 0.2 for the first, ≤ 0.2 for the second.

PRLS and DYFD cannot be ordered by “one-hybrid fitness for binding NBS DNA” value: ≤ 0.2 for the first, ≤ 0.2 for the second.

WNCG and NYVC cannot be ordered by “one-hybrid fitness for binding NBS DNA” value: ≤ 0.2 for the first, ≤ 0.2 for the second.

TGRI and HIAR cannot be ordered by “one-hybrid fitness for binding NBS DNA” value: ≤ 0.2 for the first, ≤ 0.2 for the second.

PEFN and DVHM cannot be ordered by “one-hybrid fitness for binding NBS DNA” value: ≤ 0.2 for the first, ≤ 0.2 for the second.

LVSV and RSFW cannot be ordered by “one-hybrid fitness for binding NBS DNA” value: ≤ 0.2 for the first, ≤ 0.2 for the second.

PDCT and LYWF cannot be ordered by “one-hybrid fitness for binding NBS DNA” value: ≤ 0.2 for the first, ≤ 0.2 for the second.

SFVG and CENS cannot be ordered by “one-hybrid fitness for binding NBS DNA” value: ≤ 0.2 for the first, ≤ 0.2 for the second.

IRKK and MCYR cannot be ordered by “one-hybrid fitness for binding NBS DNA” value: ≤ 0.2 for the first, ≤ 0.2 for the second.

SLYE and GIPR cannot be ordered by “one-hybrid fitness for binding NBS DNA” value: ≤ 0.2 for the first, ≤ 0.2 for the second.

AIMP and NRLD cannot be ordered by “one-hybrid fitness for binding NBS DNA” value: ≤ 0.2 for the first, ≤ 0.2 for the second.

LDAR and SMKT cannot be ordered by “one-hybrid fitness for binding NBS DNA” value: ≤ 0.2 for the first, ≤ 0.2 for the second.

First: QCQT
Second: RFIA
The “one-hybrid fitness for binding NBS DNA” value of the first is higher: 0.526 for the first, ≤ 0.2 for the second.

SNSY and RRPK cannot be ordered by “one-hybrid fitness for binding NBS DNA” value: ≤ 0.2 for the first, ≤ 0.2 for the second.

PQFK and KQLS cannot be ordered by “one-hybrid fitness for binding NBS DNA” value: ≤ 0.2 for the first, ≤ 0.2 for the second.

LFNV and LRVQ cannot be ordered by “one-hybrid fitness for binding NBS DNA” value: ≤ 0.2 for the first, ≤ 0.2 for the second.

LIKC and RRAL cannot be ordered by “one-hybrid fitness for binding NBS DNA” value: ≤ 0.2 for the first, ≤ 0.2 for the second.

WCKG and MTEF cannot be ordered by “one-hybrid fitness for binding NBS DNA” value: ≤ 0.2 for the first, ≤ 0.2 for the second.

RYSK and KFTF cannot be ordered by “one-hybrid fitness for binding NBS DNA” value: ≤ 0.2 for the first, ≤ 0.2 for the second.

VINF and KRAW cannot be ordered by “one-hybrid fitness for binding NBS DNA” value: ≤ 0.2 for the first, ≤ 0.2 for the second.

SETV and TADY cannot be ordered by “one-hybrid fitness for binding NBS DNA” value: ≤ 0.2 for the first, ≤ 0.2 for the second.

VCGG and DINN cannot be ordered by “one-hybrid fitness for binding NBS DNA” value: ≤ 0.2 for the first, ≤ 0.2 for the second.

LRPY and NHHR cannot be ordered by “one-hybrid fitness for binding NBS DNA” value: ≤ 0.2 for the first, ≤ 0.2 for the second.

QHTC and EAYC cannot be ordered by “one-hybrid fitness for binding NBS DNA” value: ≤ 0.2 for the first, ≤ 0.2 for the second.

CVHG and DRVC cannot be ordered by “one-hybrid fitness for binding NBS DNA” value: ≤ 0.2 for the first, ≤ 0.2 for the second.

QPQK and RWSD cannot be ordered by “one-hybrid fitness for binding NBS DNA” value: ≤ 0.2 for the first, ≤ 0.2 for the second.

DSHM and LNNN cannot be ordered by “one-hybrid fitness for binding NBS DNA” value: ≤ 0.2 for the first, ≤ 0.2 for the second.

YMQC and VLST cannot be ordered by “one-hybrid fitness for binding NBS DNA” value: ≤ 0.2 for the first, ≤ 0.2 for the second.

STMM and FQVG cannot be ordered by “one-hybrid fitness for binding NBS DNA” value: ≤ 0.2 for the first, ≤ 0.2 for the second.

Compared with RSWS, LANT is lower in “one-hybrid fitness for binding NBS DNA” value: 0.238 for the first, ≤ 0.2 for the second.

MKQG and FAIL cannot be ordered by “one-hybrid fitness for binding NBS DNA” value: ≤ 0.2 for the first, ≤ 0.2 for the second.

LHII and DRDR cannot be ordered by “one-hybrid fitness for binding NBS DNA” value: ≤ 0.2 for the first, ≤ 0.2 for the second.

WKML and IVDT cannot be ordered by “one-hybrid fitness for binding NBS DNA” value: ≤ 0.2 for the first, ≤ 0.2 for the second.

YDYG and IRHV cannot be ordered by “one-hybrid fitness for binding NBS DNA” value: ≤ 0.2 for the first, ≤ 0.2 for the second.

GTSS and CNSR cannot be ordered by “one-hybrid fitness for binding NBS DNA” value: ≤ 0.2 for the first, ≤ 0.2 for the second.

GPET and FVAT cannot be ordered by “one-hybrid fitness for binding NBS DNA” value: ≤ 0.2 for the first, ≤ 0.2 for the second.

Compared with TNMM, CGAR is higher in “one-hybrid fitness for binding NBS DNA” value: ≤ 0.2 for the first, 0.441 for the second.

DVLM and NRVF cannot be ordered by “one-hybrid fitness for binding NBS DNA” value: ≤ 0.2 for the first, ≤ 0.2 for the second.

GNSI and EGSV cannot be ordered by “one-hybrid fitness for binding NBS DNA” value: ≤ 0.2 for the first, ≤ 0.2 for the second.

MRRH and PGDI cannot be ordered by “one-hybrid fitness for binding NBS DNA” value: ≤ 0.2 for the first, ≤ 0.2 for the second.

QIQL and ETIW cannot be ordered by “one-hybrid fitness for binding NBS DNA” value: ≤ 0.2 for the first, ≤ 0.2 for the second.

TADG and SVHW cannot be ordered by “one-hybrid fitness for binding NBS DNA” value: ≤ 0.2 for the first, ≤ 0.2 for the second.

ASSP and YSHS cannot be ordered by “one-hybrid fitness for binding NBS DNA” value: ≤ 0.2 for the first, ≤ 0.2 for the second.

RKQW and TNPM cannot be ordered by “one-hybrid fitness for binding NBS DNA” value: ≤ 0.2 for the first, ≤ 0.2 for the second.

First: WSQF
Second: QQGY
The “one-hybrid fitness for binding NBS DNA” value of the first is lower: ≤ 0.2 for the first, 0.219 for the second.

First: RSMT
Second: QTCY
The “one-hybrid fitness for binding NBS DNA” value of the first is higher: 0.305 for the first, 0.28 for the second.

RSEL and SQRE cannot be ordered by “one-hybrid fitness for binding NBS DNA” value: ≤ 0.2 for the first, ≤ 0.2 for the second.

KLNT and KAKW cannot be ordered by “one-hybrid fitness for binding NBS DNA” value: ≤ 0.2 for the first, ≤ 0.2 for the second.

QKEN and DITY cannot be ordered by “one-hybrid fitness for binding NBS DNA” value: ≤ 0.2 for the first, ≤ 0.2 for the second.

Compared with SWCT, IRLR is higher in “one-hybrid fitness for binding NBS DNA” value: ≤ 0.2 for the first, 0.24 for the second.

NFFP and KHAC cannot be ordered by “one-hybrid fitness for binding NBS DNA” value: ≤ 0.2 for the first, ≤ 0.2 for the second.

ILNR and SSID cannot be ordered by “one-hybrid fitness for binding NBS DNA” value: ≤ 0.2 for the first, ≤ 0.2 for the second.

FYRK and TPFE cannot be ordered by “one-hybrid fitness for binding NBS DNA” value: ≤ 0.2 for the first, ≤ 0.2 for the second.

HYSF and LAWK cannot be ordered by “one-hybrid fitness for binding NBS DNA” value: ≤ 0.2 for the first, ≤ 0.2 for the second.

GNVR and VPIA cannot be ordered by “one-hybrid fitness for binding NBS DNA” value: ≤ 0.2 for the first, ≤ 0.2 for the second.

FSEV and GNPW cannot be ordered by “one-hybrid fitness for binding NBS DNA” value: ≤ 0.2 for the first, ≤ 0.2 for the second.

YLVA and CTIV cannot be ordered by “one-hybrid fitness for binding NBS DNA” value: ≤ 0.2 for the first, ≤ 0.2 for the second.

NRHN and KTAK cannot be ordered by “one-hybrid fitness for binding NBS DNA” value: ≤ 0.2 for the first, ≤ 0.2 for the second.

With EHSG the “one-hybrid fitness for binding NBS DNA” value was ≤ 0.2.
